# Experimental data published in the supplement of paper PMC8728848.
# The list shows a part of the results.
# B1: MVL (Microcystis viridis), Q9RHG4 (protein)
# chain: MASYKVNIPAGPLWSNAEAQQVGPKIAAAHQGNFTGQWTTVVESAMSVVEVELQVENTGIHEFKTDVLAGPLWSNDEAQKLGPQIAASYGAEFTGQWRTIVEGVMSVIQIKYTF
# What was measured:
# Test in all cases: glycan array binding signal (z-score within array); higher = stronger binding
# Settings in all cases: glycan notation: IUPAC condensed, linker removed
# Fuc(a1-2)Gal = molecular target: Fuc(a1-2)Gal
# Outline: (§1)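 The binding signal is a Z-score computed within each array. Data were drawn from 3228 arrays in the Consortium for Functional Glycomics database, restricted to those with a known protein sequence. Scores were averaged over arrays of the same protein sequence at different concentrations or buffers, and over linkers, and negative values can be taken as non-binding.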
# Fuc(a1-2)Gal(b1-3)GalNAc = molecular target: Fuc(a1-2)Gal(b1-3)GalNAc
# Outline: as §1
# [1] = molecular target: Fuc(a1-2)Gal(b1-3)GalNAc(b1-3)Gal
# Outline: as §1
# [2] = molecular target: Fuc(a1-2)Gal(b1-3)GalNAc(b1-3)Gal(a1-4)Gal(b1-4)Glc
# Outline: as §1
# [3] = molecular target: Fuc(a1-2)Gal(b1-3)GalNAc(b1-4)[Neu5Ac(a2-3)]Gal(b1-4)Glc
# Outline: as §1
# Fuc(a1-2)Gal(b1-3)GlcNAc = molecular target: Fuc(a1-2)Gal(b1-3)GlcNAc
# Outline: as §1
# [4] = molecular target: Fuc(a1-2)Gal(b1-3)GlcNAc(b1-2)Man(a1-3)[Fuc(a1-2)Gal(b1-3)GlcNAc(b1-2)Man(a1-6)]Man(b1-4)GlcNAc(b1-4)GlcNAc
# Outline: as §1
# [5] = molecular target: Fuc(a1-2)Gal(b1-3)GlcNAc(b1-3)Gal(b1-4)Glc
# Outline: as §1
# [6] = molecular target: Fuc(a1-2)Gal(b1-3)GlcNAc(b1-3)[Gal(b1-4)[Fuc(a1-3)]GlcNAc(b1-6)]Gal(b1-4)Glc
# Outline: as §1
# [7] = molecular target: Fuc(a1-2)Gal(b1-3)[Fuc(a1-4)]GlcNAc
# Outline: as §1
# [8] = molecular target: Fuc(a1-2)Gal(b1-3)[Fuc(a1-4)]GlcNAc(b1-2)Man(a1-3)[Fuc(a1-2)Gal(b1-3)[Fuc(a1-4)]GlcNAc(b1-2)Man(a1-6)]Man(b1-4)GlcNAc(b1-4)GlcNAc
# Outline: as §1
# Fuc(a1-2)Gal(b1-4)Glc = molecular target: Fuc(a1-2)Gal(b1-4)Glc
# Outline: as §1
# Fuc(a1-2)Gal(b1-4)Glc6S = molecular target: Fuc(a1-2)Gal(b1-4)Glc6S
# Outline: as §1
# Fuc(a1-2)Gal(b1-4)GlcNAc = molecular target: Fuc(a1-2)Gal(b1-4)GlcNAc
# Outline: as §1
# [9] = molecular target: Fuc(a1-2)Gal(b1-4)GlcNAc(b1-2)Man(a1-3)[Fuc(a1-2)Gal(b1-4)GlcNAc(b1-2)Man(a1-6)]Man(b1-4)GlcNAc(b1-4)GlcNAc
# Outline: as §1
# [10] = molecular target: Fuc(a1-2)Gal(b1-4)GlcNAc(b1-3)Gal(b1-4)GlcNAc
# Outline: as §1
# [11] = molecular target: Fuc(a1-2)Gal(b1-4)GlcNAc(b1-3)Gal(b1-4)GlcNAc(b1-3)Gal(b1-4)GlcNAc
# Outline: as §1
# [12] = molecular target: Fuc(a1-2)Gal(b1-4)GlcNAc6S
# Outline: as §1
# [13] = molecular target: Fuc(a1-2)Gal(b1-4)[Fuc(a1-3)]GlcNAc
# Outline: as §1
# [14] = molecular target: Fuc(a1-2)Gal(b1-4)[Fuc(a1-3)]GlcNAc(b1-2)Man(a1-3)[Fuc(a1-2)Gal(b1-4)[Fuc(a1-3)]GlcNAc(b1-2)Man(a1-6)]Man(b1-4)GlcNAc(b1-4)GlcNAc
# Outline: as §1
# [15] = molecular target: Fuc(a1-2)Gal(b1-4)[Fuc(a1-3)]GlcNAc(b1-3)Gal(b1-4)[Fuc(a1-3)]GlcNAc
# Outline: as §1
# [16] = molecular target: Fuc(a1-2)Gal(b1-4)[Fuc(a1-3)]GlcNAc(b1-3)Gal(b1-4)[Fuc(a1-3)]GlcNAc(b1-3)Gal(b1-4)[Fuc(a1-3)]GlcNAc
# Outline: as §1
# Fuc(a1-2)Gal6S(b1-4)Glc = molecular target: Fuc(a1-2)Gal6S(b1-4)Glc
# Outline: as §1
# [17] = molecular target: Fuc(a1-2)Gal6S(b1-4)Glc6S
# Outline: as §1
# [18] = molecular target: Fuc(a1-2)Gal6S(b1-4)GlcNAc
# Outline: as §1
# Fuc(a1-2)GlcNAc = molecular target: Fuc(a1-2)GlcNAc
# Outline: as §1
# Fuc(a1-2)[Gal(a1-3)]Gal = molecular target: Fuc(a1-2)[Gal(a1-3)]Gal
# Outline: as §1
# [19] = molecular target: Fuc(a1-2)[Gal(a1-3)]Gal(b1-3)GlcNAc
# Outline: as §1
# [20] = molecular target: Fuc(a1-2)[Gal(a1-3)]Gal(b1-3)GlcNAc(b1-2)Man(a1-3)[Fuc(a1-2)[Gal(a1-3)]Gal(b1-3)GlcNAc(b1-2)Man(a1-6)]Man(b1-4)GlcNAc(b1-4)GlcNAc
# Outline: as §1
# [21] = molecular target: Fuc(a1-2)[Gal(a1-3)]Gal(b1-4)Glc
# Outline: as §1
# [22] = molecular target: Fuc(a1-2)[Gal(a1-3)]Gal(b1-4)GlcNAc
# Outline: as §1
# [23] = molecular target: Fuc(a1-2)[Gal(a1-3)]Gal(b1-4)GlcNAc(b1-2)Man(a1-3)[Fuc(a1-2)[Gal(a1-3)]Gal(b1-4)GlcNAc(b1-2)Man(a1-6)]Man(b1-4)GlcNAc(b1-4)GlcNAc
# Outline: as §1
# [24] = molecular target: Fuc(a1-2)[Gal(a1-3)]Gal(b1-4)[Fuc(a1-3)]GlcNAc
# Outline: as §1
# [25] = molecular target: Fuc(a1-2)[Gal(a1-4)]Gal(b1-4)GlcNAc
# Outline: as §1
# [26] = molecular target: Fuc(a1-2)[GalNAc(a1-3)]Gal
# Outline: as §1
# [27] = molecular target: Fuc(a1-2)[GalNAc(a1-3)]Gal(b1-3)GlcNAc
# Outline: as §1
# [28] = molecular target: Fuc(a1-2)[GalNAc(a1-3)]Gal(b1-3)GlcNAc(b1-2)Man(a1-3)[Fuc(a1-2)[GalNAc(a1-3)]Gal(b1-3)GlcNAc(b1-2)Man(a1-6)]Man(b1-4)GlcNAc(b1-4)GlcNAc
# Outline: as §1
# [29] = molecular target: Fuc(a1-2)[GalNAc(a1-3)]Gal(b1-4)Glc
# Outline: as §1
# [30] = molecular target: Fuc(a1-2)[GalNAc(a1-3)]Gal(b1-4)GlcNAc
# Outline: as §1
# [31] = molecular target: Fuc(a1-2)[GalNAc(a1-3)]Gal(b1-4)GlcNAc(b1-2)Man(a1-3)[GalNAc(a1-3)[Fuc(a1-2)]Gal(b1-4)GlcNAc(b1-2)Man(a1-6)]Man(b1-4)GlcNAc(b1-4)GlcNAc
# Outline: as §1
# [32] = molecular target: Fuc(a1-2)[GalNAc(a1-3)]Gal(b1-4)GlcNAc(b1-3)Gal(b1-4)GlcNAc
# Outline: as §1
# [33] = molecular target: Fuc(a1-2)[GalNAc(a1-3)]Gal(b1-4)GlcNAc(b1-3)Gal(b1-4)GlcNAc(b1-3)Gal(b1-4)GlcNAc
# Outline: as §1
# [34] = molecular target: Fuc(a1-2)[GalNAc(a1-3)]Gal(b1-4)[Fuc(a1-3)]GlcNAc
# Outline: as §1
# [35] = molecular target: Fuc(a1-2)[GalNAc(a1-4)]Gal(b1-4)GlcNAc
# Outline: as §1
# [36] = molecular target: Fuc(a1-2)[GalNAc(b1-3)]Gal
# Outline: as §1
binder,measurement,setting,value
B1,glycan array binding signal (z-score),Fuc(a1-2)Gal,-0.235
same,glycan array binding signal (z-score),Fuc(a1-2)Gal(b1-3)GalNAc,-0.102
same,glycan array binding signal (z-score),[1],-0.113
same,glycan array binding signal (z-score),[2],-0.236
same,glycan array binding signal (z-score),[3],-0.23
same,glycan array binding signal (z-score),Fuc(a1-2)Gal(b1-3)GlcNAc,-0.222
same,glycan array binding signal (z-score),[4],0.909
same,glycan array binding signal (z-score),[5],-0.237
same,glycan array binding signal (z-score),[6],-0.217
same,glycan array binding signal (z-score),[7],-0.242
same,glycan array binding signal (z-score),[8],0.019
same,glycan array binding signal (z-score),Fuc(a1-2)Gal(b1-4)Glc,-0.242
same,glycan array binding signal (z-score),Fuc(a1-2)Gal(b1-4)Glc6S,-0.234
same,glycan array binding signal (z-score),Fuc(a1-2)Gal(b1-4)GlcNAc,-0.233
same,glycan array binding signal (z-score),[9],0.923
same,glycan array binding signal (z-score),[10],-0.223
same,glycan array binding signal (z-score),[11],-0.199
same,glycan array binding signal (z-score),[12],-0.25
same,glycan array binding signal (z-score),[13],-0.236
same,glycan array binding signal (z-score),[14],-0.093
same,glycan array binding signal (z-score),[15],-0.238
same,glycan array binding signal (z-score),[16],-0.157
same,glycan array binding signal (z-score),Fuc(a1-2)Gal6S(b1-4)Glc,-0.227
same,glycan array binding signal (z-score),[17],-0.183
same,glycan array binding signal (z-score),[18],-0.24
same,glycan array binding signal (z-score),Fuc(a1-2)GlcNAc,-0.244
same,glycan array binding signal (z-score),Fuc(a1-2)[Gal(a1-3)]Gal,-0.238
same,glycan array binding signal (z-score),[19],-0.209
same,glycan array binding signal (z-score),[20],0.752
same,glycan array binding signal (z-score),[21],-0.229
same,glycan array binding signal (z-score),[22],-0.243
same,glycan array binding signal (z-score),[23],1.59
same,glycan array binding signal (z-score),[24],-0.195
same,glycan array binding signal (z-score),[25],-0.246
same,glycan array binding signal (z-score),[26],-0.22
same,glycan array binding signal (z-score),[27],-0.204
same,glycan array binding signal (z-score),[28],0.451
same,glycan array binding signal (z-score),[29],-0.201
same,glycan array binding signal (z-score),[30],-0.246
same,glycan array binding signal (z-score),[31],1.72
same,glycan array binding signal (z-score),[32],-0.242
same,glycan array binding signal (z-score),[33],-0.202
same,glycan array binding signal (z-score),[34],-0.201
same,glycan array binding signal (z-score),[35],-0.231
same,glycan array binding signal (z-score),[36],-0.241
